Reference: PubChem BioAssay AID624418 (National Center for Advancing Translational Sciences (NCATS), 2012)
In all, about 410,000 compounds went through this assay and about 530 (0.13%) were called active. This list was built around the results that the source calls inconclusive (neither active nor inactive); the mix of calls is not that of the screen. The call rests on the fitted dose curve; in most records, active means well fitted inhibition curve with a large enough effect; inconclusive means small, poorly fitted or top-dose-only effect, or another doubt; inactive means no such curve, though single readings can be large or run the other way. Potencies beside an inconclusive call are fits to weak or partial responses and may not hold up.
On the % scale 0 is the no-effect control and ±100 the full control effect; potency means the concentration at half of the fitted maximal effect.

Assay: qHTS of GLP-1 Receptor Inverse Agonists: Cytotox Screen
Conditions: HEK293 cAMP-luciferase reporter cells, luminescence, 24 h; activity change, negative = inhibition: at 38.3 µM (top of the series)
Outline: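 Compound-treated cells are incubated 24 hr at 37 deg C under 5% CO2 after a 12 hour attachment period, then luciferase detection reagent is added and luminescence is measured following 12 min at room temperature; lowered signal indicates toxicity.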
With Cc1cc(C)cc(NC(=S)NCCSc2ccc(Cl)cc2)c1 the Potency was inconclusive: 22.4 µM [inhibitor, single point]. For O=C(Nc1cccc(Cl)c1)Nc1nccs1, the Potency was inconclusive: 2.51 µM [inhibitor, full curve, poor fit]. For CCc1ccccc1-n1ncc(C(=O)Nc2ccc(OC)cc2)c1C, the “activity change, negative = inhibition” value was inactive: -23%. With CCn1cc(/C=C2/SC(=S)NC2=O)c(C)n1 the Potency was inconclusive: 28.2 µM [inhibitor, single point]. In the case of O=C1/C(=C/c2ccco2)SC(=S)N1CCC(=O)N1CCCCC1CCO (centres undefined), the Potency is reported as inconclusive: 28.2 µM [inhibitor, single point]. With COc1ccccc1CN(Cc1nc2ccccc2c(=O)[nH]1)C(=O)Nc1ccc(C)cc1 the Potency was inconclusive: 8.91 µM [inhibitor, partial curve, poor fit]. In the case of C/C=C/c1ccc(OCCCCN2CCC(C)CC2)c(OC)c1, the Potency is reported as inconclusive: 12.6 µM [inhibitor, single point]. In the case of O=C(COC(=O)C1CCN(c2ccc(C(F)(F)F)cn2)CC1)Nc1ccc(Cl)cc1, the “activity change, negative = inhibition” value is reported as inactive: 5.08%. In the case of Cc1ccc(S(=O)(=O)Nc2cccc3cccnc23)c([N+](=O)[O-])c1, the Potency is reported as inconclusive: 12.6 µM [inhibitor, single point]. With COc1ccc(C(=O)NCc2ccc(-c3nc4ccccc4s3)cc2)cc1OC the Potency was inconclusive: 17.8 µM [inhibitor, partial curve, poor fit]. In the case of COc1ccc(C(=O)c2c3ccccc3[n+]([O-])n2CCC(N)=O)cc1, the Potency is reported as inconclusive: 7.08 µM [inhibitor, partial curve]. For Cc1cc(C(c2cc(C)c(N)c(C)c2)c2ccco2)cc(C)c1N, the Potency was inconclusive: 28.2 µM [inhibitor, single point]. With Cc1cccc(NC(=O)c2ccc3nc(CCc4ccccc4)oc3c2)c1C the “activity change, negative = inhibition” value was inactive: 7.61%. For CN1CCN(c2ccc(S(=O)(=O)N3CCCCC3)cc2NC(=O)/C=C/c2ccc(Cl)c([N+](=O)[O-])c2)CC1, the Potency was active: 10 µM. For COc1ccccc1NC(=S)N(Cc1ccccc1)Cc1ccccn1, the Potency was inconclusive: 28.2 µM [inhibitor, single point]. With CCOc1ccccc1C(=O)Nc1ccc2nc3c(c(Nc4ccc(OC)c(OC)c4)c2c1)CCCC3 the Potency was inconclusive: 20 µM [inhibitor, single point]. For Cc1cc(O)c2c(C)c(CC(=O)N3CCCCC3)c(=O)oc2c1, the “activity change, negative = inhibition” value was inactive: -9.33%. With CCc1nn2c(-c3ccccc3OC)ccnc2c1-c1ccc(F)cc1 the “activity change, negative = inhibition” value was inactive: 9.48%. In the case of S=c1[nH]c2ccccc2n1Cc1ccccc1, the Potency is reported as inconclusive: 10 µM [inhibitor, single point]. For CC(C)c1ccc2c(c1)CCC1C(C)(CN)CCCC21C (centres undefined), the Potency was inconclusive: 28.2 µM [inhibitor, single point]. In the case of N#C/C(=C\c1ccccn1)c1ccccn1, the Potency is reported as inconclusive: 10 µM [inhibitor, single point]. In the case of COc1cc(CC(=O)NCC2CCCCC2)cc(OC)c1OC, the “activity change, negative = inhibition” value is reported as inactive: -2.12%. For COc1c(C)cc(S(=O)(=O)Nc2cccc(-c3ccc(N4CCOCC4)nn3)c2)c(C)c1C, the “activity change, negative = inhibition” value was inactive: -28.6%. For CCN1CCN(c2ncc(C(=O)N3CCCc4ccccc43)c3ccccc23)CC1, the Potency was inconclusive: 17.8 µM [inhibitor, partial curve, poor fit]. For CCCN(CCC)CCCNC(=S)Nc1ccc2nc(N3CCN(CC)CC3)cc(C)c2c1, the Potency was inconclusive: 12.6 µM [inhibitor, partial curve, poor fit]. In the case of CCOc1ccc(CNC(=O)C2CCCN(S(=O)(=O)N3CC(C)CC(C)C3)C2)cc1OC (centres undefined), the “activity change, negative = inhibition” value is reported as inactive: -1.74%. With CCC(=O)Nc1cccc(C(=O)/C=C/c2ccc(F)cc2)c1 the Potency was inconclusive: 12.6 µM [inhibitor, partial curve, poor fit]. For NC(=O)NCc1ccccc1, the Potency was inconclusive: 3.98 µM [inhibitor, full curve, poor fit]. For O=C(Oc1ccccc1C(=O)Nc1ccccc1)c1ccccc1Br, the Potency was inconclusive: 2.24 µM [inhibitor, full curve, poor fit]. With N#C/C(=C\c1ccc(F)cc1)C(=O)NCC1CCCO1 (centres undefined) the “activity change, negative = inhibition” value was inactive: -0.898%. For CCN1C(=O)[C@H]2[C@@H](c3ccc(-c4cccc(Cl)c4)cc3)N3CCCC[C@@]3(C(=O)OC)[C@H]2C1=O, the “activity change, negative = inhibition” value was inactive: -23.9%. For C#Cc1cc(N2CCN(C(=O)c3ccoc3)CC2)n2nc(-c3cccc(Cl)c3)cc2n1, the Potency was inconclusive: 14.1 µM [inhibitor, single point]. In the case of COc1cccc(CNC(=O)CCC2CCCN(C/C=C/c3ccccc3OC)C2)c1 (centres undefined), the Potency is reported as inconclusive: 31.6 µM [inhibitor, partial curve, poor fit]. With CCOc1ccccc1C(=O)N1CCN(c2cccc(Cl)c2)CC1 the “activity change, negative = inhibition” value was inactive: -39.1%. With Clc1nccnc1N/N=C/c1ccc(Br)cc1 the “activity change, negative = inhibition” value was inactive: 1.63%. In the case of CC/C(=N\NC(=S)Nc1ccc(OC)cc1)c1ccc(OC(F)F)cc1, the Potency is reported as inconclusive: 7.08 µM [inhibitor, partial curve, poor fit]. In the case of CC(C)[C@H](Nc1ccc(S(=O)(=O)N2CCOCC2)cc1[N+](=O)[O-])C(=O)OCC(=O)N(C(C)C)C(C)C, the Potency is reported as inconclusive: 28.2 µM [inhibitor, single point]. In the case of COc1cccc(-c2cnc3c(NC(C)=O)cc(-c4cc(F)ccc4OC)cn23)c1, the Potency is reported as inconclusive: 11.2 µM [inhibitor, partial curve, poor fit]. In the case of O=C(Nc1nc(-c2nc3ccccc3s2)cs1)c1ccc(S(=O)(=O)N2CCOCC2)cc1, the “activity change, negative = inhibition” value is reported as inactive: -7.81%. With C[C@H]1CN=C(N(C)C)N1CCc1ccccc1 the Potency was inconclusive: 31.6 µM [inhibitor, single point]. With CN(CC(=O)Nc1cccc(Cl)c1)S(=O)(=O)c1ccc2[nH]c3c(c2c1)CCCC3 the “activity change, negative = inhibition” value was inactive: -1.67%. With Clc1cccc2c1Sc1ccccc1CC2N1CCNCC1 (centres undefined) the Potency was inconclusive: 20 µM [inhibitor, single point]. With COc1ccc(CCNC(=O)c2ccc3c(c2)N(Cc2ccc(C)cc2)CCS3)cc1OC the Potency was “inactive”. For O=C(NC(=S)NCc1ccccc1)c1cccc(Cl)c1, the Potency was inconclusive: 28.2 µM [inhibitor, single point]. For CCOC(=O)c1c(-c2ccccc2)oc2ccc(OCC(O)CN(C)C)cc12 (centres undefined), the Potency was inconclusive: 28.2 µM [inhibitor, single point]. With CC1CCN(c2nc3ccc(C(=O)NCCCN4CCCCC4C)cc3s2)CC1 (centres undefined) the Potency was inconclusive: 28.2 µM [inhibitor, single point]. With O=C(/C=C/c1ccc(N2CCCCC2)c([N+](=O)[O-])c1)c1ccc(O)cc1 the Potency was inconclusive: 12.6 µM [inhibitor, partial curve, poor fit]. For CN1C/C(=C/c2cccnc2)C(=O)/C(=C/c2cccnc2)C1, the Potency was inconclusive: 10 µM [inhibitor, partial curve, poor fit]. With C=CCNc1n[nH]c(=S)s1 the Potency was inconclusive: 1 µM [inhibitor, full curve, poor fit]. For COc1cc2ccccc2cc1C(=O)N1CCN(c2nc3c(C)cc(C)cc3s2)CC1, the “activity change, negative = inhibition” value was inactive: -6.61%. In the case of O=C(N/N=C/c1ccc2c(c1)OCO2)c1ccc2c(c1)OCCO2, the Potency is reported as inconclusive: 7.94 µM [inhibitor, partial curve, poor fit]. For CC(=O)C(=Nc1ccc(Cl)cc1Cl)NNc1cccc(Cl)c1, the Potency was inconclusive: 20 µM [inhibitor, single point]. For S=C(NCCSCc1ccc(Cl)c(Cl)c1)Nc1ccccc1, the Potency was inconclusive: 11.2 µM [inhibitor, single point]. For O=C(CCCn1c(SCC(=O)c2ccc(O)c(O)c2)nc2ccccc2c1=O)NCC1CCCO1 (centres undefined), the Potency was inconclusive: 31.6 µM [inhibitor, single point]. For COc1ccccc1-c1sc2ccccc2c1-c1ccc2c(c1)OCO2, the “activity change, negative = inhibition” value was inactive: 2.32%. With COc1ccccc1-c1c(C)nn2c(-c3ccccc3)cc(C)nc12 the “activity change, negative = inhibition” value was inactive: 29.2%. With O=C(NC(=S)Nc1cc(C(F)(F)F)ccc1N1CCOCC1)c1ccco1 the Potency was inconclusive: 11.2 µM [inhibitor, partial curve, poor fit]. In the case of CCCN1C(=O)C(O)(CC(=O)c2ccc(CC)cc2)c2cc(Br)ccc21 (centres undefined), the Potency is reported as inconclusive: 8.91 µM [inhibitor, partial curve, poor fit]. With C/C(CC(=O)Nc1ccccc1Cl)=N\NC(=O)C(=O)NCCO the Potency was inconclusive: 28.2 µM [inhibitor, single point]. With Cn1c(CCNC(=O)c2ccccc2)nc2cc(NC(=O)C3CCCCC3)ccc21 the “activity change, negative = inhibition” value was inactive: -54.9%. In the case of O=C(COC(=O)/C=C/c1cccc(F)c1)NCc1ccc2c(c1)OCO2, the Potency is reported as inconclusive: 0.501 µM [inhibitor, full curve, poor fit]. For S=c1nc[nH]c2c1cnn2-c1ccccc1, the “activity change, negative = inhibition” value was inactive: -1.08%. With Cc1cc(NC(=O)CON=C(N)CC(=O)Nc2ccccc2Cl)ccc1Br the “activity change, negative = inhibition” value was inactive: -2.61%. With Cc1cc(C2=NNC(=NC3CC3)SC2)c(C)n1Cc1ccco1 the Potency was inconclusive: 3.98 µM [inhibitor, partial curve]. In the case of CC1CCN(S(=O)(=O)c2cn(CC(=O)Nc3ccc(F)c(Cl)c3)c(=O)c3ccccc23)CC1, the “activity change, negative = inhibition” value is reported as inactive: 1.17%. In the case of Cc1ccc(C(=O)c2c(C)oc3c2C(=O)C(=O)c2ccccc2-3)cc1, the Potency is reported as active: 5.01 µM. With COc1ccc(/C=N\NS(=O)(=O)c2ccc(C)cc2)cc1COc1ccccc1[N+](=O)[O-] the Potency was inconclusive: 3.16 µM [inhibitor, partial curve, poor fit]. For Cc1ccc(C2=N/C(=C\c3ccc(F)cc3)C(=O)N2)cc1, the “activity change, negative = inhibition” value was inactive: 2.42%. With CCCCOc1ccc(S(=O)(=O)NC(=O)C2(C)CCN2C(=O)c2c(C)noc2C)cc1 (centres undefined) the “activity change, negative = inhibition” value was inactive: 3.42%.
